Data from paper PMC12136788.
The other results are listed elsewhere or left out.

T1: UNK ZnF1-3 (human, UniProt Q9C0B0 31-174)
T1 sequence: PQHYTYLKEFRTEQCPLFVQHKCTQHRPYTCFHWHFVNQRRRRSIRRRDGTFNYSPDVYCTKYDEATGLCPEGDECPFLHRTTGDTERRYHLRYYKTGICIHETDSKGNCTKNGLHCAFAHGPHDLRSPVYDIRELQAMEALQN

B1: chrX:140365796:140365797:-_ENSMUSG00000031285_ENSMUST00000033642|mus_mus|mus_mus_mus_hu_False|18_18 (ssRNA)
RNA: GGGAGUUCUACAGUCCGACGAUCCUUCUCAUUACUCAGUGCCUGCAAGGUUCUGGUUCGGUAGAAGCUACAGUGGGCGCUGUGAGUGGGGCUAGGCAACCCAUUCAUCCGGGAGCCUCUCAUAUUUCUGGAUGUCUUAUCUCUCAACAGAGGAUUGAGCAUCA
B2: chr16:94647761:94647762:+_ENSMUSG00000040785_ENSMUST00000117648|mus_hu|FALSE|FALSE (ssRNA)
RNA: GGGAGUUCUACAGUCCGACGAUCGAUAAUCUUAGAAAUGACACCUUCACAGUCAGGGGUAAGACAUAUUCCUUGUAGAAAAUCCUUGUCAAUUUUAUCAUUAAAGGUUGUAGUUUUUAACUUCUUCCAGCAAUUCAUGUGAAACAACAGAGGAUUGAGCAUCA
B3: chr7:141450121:141450122:+_ENSG00000106028_ENST00000265304|hu_mus|hu_hu_hu_mus_True|1_98 (ssRNA)
RNA: GGGAGUUCUACAGUCCGACGAUCUCAUCCGUUCUAUUCCUUCUCUUUUGUCUGGUCACUCAGAAAUAUAAUGUUAUCAGCUAUGAUUGUUGUUGCUUGCCGCCUCACAUUGUUUUUAUCCAUGUACUCGCCAUAGUCUAUUUUCAACAGAGGAUUGAGCAUCA
B4: chr15:83807826:83807827:-_ENSG00000166503_ENST00000299633|hu_mus|FALSE|FALSE (ssRNA)
RNA: GGGAGUUCUACAGUCCGACGAUCAUUAAGGGCAACUUCAUGCAACCAAAUAACAUAAAAUAAAGUCAACCUUAAAAGGGUUAAAAUGUCUCUUUUUCCUUCAACAGAACAGAGAGGAAUGUGACUAAUGCACACACAUACUGGCAACAGAGGAUUGAGCAUCA
B5: chr7:149068622:149068623:-_ENSMUSG00000025139_ENSMUST00000001950|mus_hu|mus_mus_mus_hu_False|98_108 (ssRNA)
RNA: GGGAGUUCUACAGUCCGACGAUCGUGCAGGUACUGAGUGAGGUUCCUGGUCUGUCCUGGGUUAGAGUUGUUAAUAUCACGGAACAUACCAUCUAGAACGUUCCAGUCCCGCCUGACACCUUCAUUCCCAAUGGAGAAGAAAUCCAACAGAGGAUUGAGCAUCA
B6: chr11:31958201:31958202:+_ENSMUSG00000020297_ENSMUST00000020537|mus_mus|motif|central (ssRNA)
RNA: GGGAGUUCUACAGUCCGACGAUCCCAUGAGUUUGUGCAAAUCUUGCAAGCUCACCAUUGAGUGGUACUCUGUGCAUUCCGGGUUGAGAAAUGCCAACAUCACCUUCCUCUCCAAAUCAGCCUUGCCUGCCAUCGCUGUGCUUCCAACAGAGGAUUGAGCAUCA
B7: chr4:86222814:86222815:+_ENSMUSG00000070934_ENSMUST00000091064|mus_hu|FALSE|FALSE (ssRNA)
RNA: GGGAGUUCUACAGUCCGACGAUCGACAUUAUGAAUAUUAAAAAUAAAGGAUGCAAACAAAAAAGGCAAUUCAGCAUUUUCAGAAAGAGCAUUUGGCAAUAUUCAACGCAUAAGGAGACUGUGCUUGGGGCCAUCCACUCUCUCCAACAGAGGAUUGAGCAUCA
B8: chr11:105132459:105132460:+_ENSMUSG00000020694_ENSMUST00000015107|mus_mus|FALSE|FALSE (ssRNA)
RNA: GGGAGUUCUACAGUCCGACGAUCGAUCUUGGAAAGACCAAAAUCUGUAAUUUUUAUCUCUCCACAUGCUGUACCAUUUACUAAAAGGAUAUUACCUGGUUUGAGGUCAUAGUGUAUGAUGGGAGGUUUUAUUUCAUUUAAGUACAACAGAGGAUUGAGCAUCA
B9: chr5:4806447:4806448:-_ENSMUSG00000028926_ENSMUST00000030763|mus_mus|FALSE|FALSE (ssRNA)
RNA: GGGAGUUCUACAGUCCGACGAUCUCACAGAGACACCGUGCGAUGGACACUGUGCGGCAGGGGGAAGCAAACAGAACCAGACACAAAAGACGGAAAAGAAUACAUGCCAUGUAGCAGUAAGCAAAGCUUAAUCGUCACGUAGUUCAACAGAGGAUUGAGCAUCA
B10: 59925389_59927128_2872_CDS_ENSMUSG00000067336_ENSMUST00000087435|mouse|control|control (ssRNA)
RNA: GGGAGUUCUACAGUCCGACGAUCCUUGAUCUUUUCACCUGAUCCUGAUUUGCCAUCUUGUGUUGACUCACCUAUCUGUAUACUGCUGCCAUCCAGGAUAUUUGUGGCUGAAAGAUCCAGAGAAUUGGGCCUCUGUGCUCUUCUCAACAGAGGAUUGAGCAUCA
B11: 243354648_243354768_771_3pUTR_ENSG00000143702_ENST00000366542|human|control|control (ssRNA)
RNA: GGGAGUUCUACAGUCCGACGAUCUGAAUAGUGCUUUCUGUUAUUUGUGAUGGUUGCUGGAAUUCUUUUGUAGGGAUUUCAAAAUAACUUGGUUCCCUACAGAAAGGAAAAAGUACUUCUUCAUUUGCAGCUGCAGAUUGUUCCCAACAGAGGAUUGAGCAUCA
B12: chr7:141445308:141445309:+_ENSG00000106028_ENST00000265304|hu_hu|hu_hu_hu_mus_False|28_38 (ssRNA)
RNA: GGGAGUUCUACAGUCCGACGAUCUAUGAUUGUUGUUGCUUGCCGCCUCACAUUGUUUUUAUCCAUGUACUCGCCAUAGUCCACUUUCCCUUCCACAUAAAUUCGAGACCCCUUUUUCACAUACUGAUAUGCCACAUCUCUGAGCAACAGAGGAUUGAGCAUCA
B13: chr8:74585381:74585382:-_ENSG00000040341_ENST00000355780|hu_mus|FALSE|FALSE (ssRNA)
RNA: GGGAGUUCUACAGUCCGACGAUCGGGCAUUGGGCAAUGAUACCUCUGAUUGUACAUGCCCCGGAAGUUGUAGUUAGCUCUAUAAUUUGGGAAUGGCUUUGGAUCUAGUGGCCUGUAGAUGGCAGGCUCUCCCCUUUUCAUAGCCAACAGAGGAUUGAGCAUCA
B14: chr3:176740097:176740098:-_ENSG00000177565_ENST00000430069|hu_mus|hu_hu_hu_mus_True|1_48 (ssRNA)
RNA: GGGAGUUCUACAGUCCGACGAUCUGUUUUGUAUACCACAAAAGGAGGCACUUUCAGUAUCUGCAAAAGGUGUUUAGUCCUAAAACAUACUUACCUAGAGGAUAACUCAGGAAAACAAUCUGUUACACUCUAAGACCUUAGGAACAACAGAGGAUUGAGCAUCA
B15: 72189914_72190034_5342_CDS_ENSG00000066933_ENST00000356056|human|control|control (ssRNA)
RNA: GGGAGUUCUACAGUCCGACGAUCUUUUGAAAUGCGAUUAUUUGAGAGUUUACAGGCUACAUUCAGCUGGGUGCCCAUUCUGUCUGUCUUGGAUAAUUCCUUGACAGUACUAGAUUGGCAUGGACUUCCUUUUCUUUCAAAGAACAACAGAGGAUUGAGCAUCA
B16: chr1:75481486:75481487:+_ENSMUSG00000051703_ENSMUST00000113575|mus_hu|FALSE|FALSE (ssRNA)
RNA: GGGAGUUCUACAGUCCGACGAUCGGGGCCUGAGCAGGCUGUCAGAGGUCCCCGGGACCCAUACUCAUAGUCCGCAUCUGUGGGUGAGGCCAUGAAGGAGCUCAGGGAGCUCCCGGUCUGCCGGUCUCGGAAGCUCUGGAUAUACAACAGAGGAUUGAGCAUCA
B17: chr3:130650941:130650942:+_ENSG00000017260_ENST00000359644|hu_hu|motif|central (ssRNA)
RNA: GGGAGUUCUACAGUCCGACGAUCAAUAAGGGGAUUUUUAAACUGAGAAAUAUACUUCUUCCACAGUGGCUCAUCUUCACGGAUAUCAAACUCAUUCCAGCCAUGAAAGGCUCGCCUAUGACUAACUUCACAUUUGUUUAGACCCAACAGAGGAUUGAGCAUCA
B18: chr10:121347744:121347745:-_ENSG00000151923_ENST00000436547|hu_hu|FALSE|FALSE (ssRNA)
RNA: GGGAGUUCUACAGUCCGACGAUCCAAUCUGACUGAACAACUGAAGUAUAAGGACUUCUGUCACAUCUCUGGAAAGGUUACCUACGUAUAGAGUCCGGGGCUGCCCGUCGUCUUCCAUCAUGGUGGGUGCGACGGAGCGAUCCCCAACAGAGGAUUGAGCAUCA
B19: chr7:65705844:65705845:+_ENSG00000169902_ENST00000304842|hu_mus|hu_hu_hu_mus_False|18_18 (ssRNA)
RNA: GGGAGUUCUACAGUCCGACGAUCAAACGGAUCUUUGUUACAUAAAUAAGGUGCCGGCUCCCCAUGUUUAACAAUGACCUCCAGAAGGAAGGCUUGCAUGGCAGAAUCUAGCACUUCAUCAGUAACACCCGCCUCAUCCAAGCGCAACAGAGGAUUGAGCAUCA
B20: chrX:102930994:102930995:-_ENSG00000123562_ENST00000441076|hu_hu|FALSE|FALSE (ssRNA)
RNA: GGGAGUUCUACAGUCCGACGAUCAUAAGCCCUGUUAUACAUUAACGAUUUUAAAGAACAUCAAUUUUACAAGAAAAAGACUAAGAACAAAAAGUGUUUACAGAUACAGGACAAAAAUGGUGAGCUGUCUGUAGACGCUCACAGCAACAGAGGAUUGAGCAUCA
B21: 213168467_213170549_1645_3pUTR_ENSG00000174606_ENST00000366962|human|control|control (ssRNA)
RNA: GGGAGUUCUACAGUCCGACGAUCUCUUGUUCUGUAAGAAGUGACAGUCUAGCUAGAAGUUUCAAGCCACCAACCAAAGCAACUUCAGCUCCUGGGUGCCCAGCAACAUCUUCCUUUUCUGCAGAGUAGAAAAUAUAAUCCACACAACAGAGGAUUGAGCAUCA
B22: 49087874_49087994_1285_CDS_ENSG00000129315_ENST00000261900|human|control|control (ssRNA)
RNA: GGGAGUUCUACAGUCCGACGAUCGGAAAUAAAUGCAUUUGAACCAUCCUGUGGUAAGGAAUGAUCAACUCCUGUAAGUGCUAAAUUCUCACUAGUCCGAUGACCCUGAGUAGGUUCUAGUUUGAAAGAAGGUUGGGAGGACAGCAACAGAGGAUUGAGCAUCA

The binders below were run against T1, UNK ZnF1-3 (assay: nsRBNS (natural sequence RNA bind-n-seq); RBNS binding buffer (assumed for nsRBNS): 25 mM Tris pH 7.5, 150 mM KCl, 3 mM MgCl2, 0.01% Triton X-100, 500 ug/ml BSA, 20 U/ml SUPERase-In, 4 C; UNK is unkempt and MSI1 is Musashi-1; names of the RNAs are library labels; protein concentration not given here; high values mean tight binding).
B1 showed a binding signal of 0.711 enrichment R.
For B2, the binding signal was 0.653 enrichment R.
B3 gave a binding signal of 0.38 enrichment R.
For B4, the binding signal was 0.975 enrichment R.
B5 was tested, and the binding signal was 0.739 enrichment R.
Work on B6 yielded a binding signal of 0.887 enrichment R.
B7 showed a binding signal of 2.35 enrichment R.
B8 was tested, and the binding signal was 0.987 enrichment R.
B9 showed a binding signal of 1.11 enrichment R.
Binder B10 has a binding signal of 0.577 enrichment R.
Binder B11 has a binding signal of 0.633 enrichment R.
With B12 the binding signal was 0.632 enrichment R.
Work on B13 yielded a binding signal of 0.72 enrichment R.
Binder B14 has a binding signal of 0.759 enrichment R.
With B15 the binding signal was 0.459 enrichment R.
With B16 the binding signal was 1.85 enrichment R.
For B17, the binding signal was 0.959 enrichment R.
In the case of B18, the binding signal is reported as 0.694 enrichment R.
In the case of B19, the binding signal is reported as 0.255 enrichment R.
Work on B20 yielded a binding signal of 0.849 enrichment R.
For B21, the binding signal was 1.01 enrichment R.
B22 showed a binding signal of 0.827 enrichment R.
